The other results are listed elsewhere or left out. The main result of the screen is listed elsewhere. These columns were measured beside it and carry no call.

Common to all, as to assay: Primary Screen for Target Class Profiling of Small Molecule Inhibitors of Methyltransferases
For experiment [1], the target named is Glycine N-methyltransferase (Homo sapiens) (UniProt Q14749). Conditions: purified enzyme, MTase-Glo SAH luminescence; measured here: GNMT inhibition; at 40 µM; stronger effect = lower value. Put shortly: (§1)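 Each enzyme was reacted with SAM and its substrate, with compounds tested once at 40 uM; SAH formed was read by MTase-Glo luminescence.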
In experiment [2] the target is Guanidinoacetate N-methyltransferase (Homo sapiens) (UniProt Q14353). Conditions: purified enzyme, MTase-Glo SAH luminescence; measured here: GAMT inhibition; at 40 µM; stronger effect = lower value. Put shortly:
as §1

The target in experiment [3] is Histamine N-methyltransferase (Homo sapiens) (UniProt P50135). Conditions: purified enzyme, MTase-Glo SAH luminescence; measured here: HNMT inhibition; at 40 µM; stronger effect = lower value. In short, it runs like this:
as §1

The target in experiment [4] is Nicotinamide N-methyltransferase (Homo sapiens) (UniProt P40261). The settings on record: purified enzyme, MTase-Glo SAH luminescence; measured here: NNMT inhibition; at 40 µM; stronger effect = lower value. In short, it runs like this:
as §1

In experiment [5] the target is Phenylethanolamine N-methyltransferase (Homo sapiens) (UniProt P11086). The settings on record: purified enzyme, MTase-Glo SAH luminescence; measured here: PNMT inhibition; at 40 µM; stronger effect = lower value. In short, it runs like this:
as §1
% is scaled to controls: 0 for no effect and ±100 for the full control effect.

Regarding `O=C(Cc1ccccc1F)N1CC2CC(C1)[C@H]1CCCC(=O)N1C2` (stereo not given in full), the activity change, negative = inhibition is -4.57% in experiment [1]; -4.93% in experiment [2]; -1.3% in experiment [3]; -3.86% in experiment [4]; -6.61% in experiment [5].

For the compound `O=C(c1ccccc1)N1CCCC2(CC(c3ccccn3)=NO2)C1` (stereo not given), the activity change, negative = inhibition was -3.14% in experiment [1]; -4.27% in experiment [2]; 0.541% in experiment [3]; -6.61% in experiment [4]; -1.89% in experiment [5].

As for `Clc1cc(NC2CCCCC2)n2nccc2n1`, the activity change, negative = inhibition in experiment [1] is -4.7%; in experiment [2] it was 0.423%; in experiment [3] it was -2.79%; in experiment [4] it was -2.84%; in experiment [5], 9.19%.

Consider `CCOCCCNc1nc2c(S(=O)(=O)c3ccc(C)c(C)c3)nnn2c2ccc(Cl)cc12`, for which the activity change, negative = inhibition in experiment [1] was -11.6%; in experiment [2], -0.895%; in experiment [3] it was -6.12%; in experiment [4] it was -3.02%; in experiment [5], -9.98%.

For `Cc1ccc(N(C)S(=O)(=O)c2ccc3[nH]c4c(c3c2)CCCC4)cc1`, the activity change, negative = inhibition in experiment [1] was 1.56%; in experiment [2], 0.129%; in experiment [3], -4.32%; in experiment [4], -6.91%; in experiment [5], -1.62%.

As to `Cc1cccc(N2CCN(C(=O)c3cc4n(n3)CC(c3ccc(Cl)cc3)OC4)CC2)c1` (stereo not given), the activity change, negative = inhibition in experiment [1] is -3.13%; in experiment [2], 1.91%; in experiment [3], -0.017%; in experiment [4] it was -2.19%; in experiment [5], -30.8%.

As for `CC1(C(=O)NCc2ccccc2)Cn2c(ccc2-c2ccco2)C(=O)N1CCc1ccc(Cl)cc1` (stereo not given), the activity change, negative = inhibition in experiment [1] came out at 2.3%; in experiment [2], 0%; in experiment [3], 9.31%; in experiment [4] it was 3.82%; in experiment [5], 0.516%.

`COC(=O)C1=CO[C@@H](O[C@@H]2O[C@H](CO)[C@@H](O)[C@H](O)[C@H]2O)[C@@H]2[C@@H](C(=O)O)CC[C@H]12`: the activity change, negative = inhibition in experiment [1] is -4.09%; in experiment [2], -1.22%; in experiment [3], 8.24%; in experiment [4], -16.2%; in experiment [5], -10.9%.

In the case of `Cc1cc2occ(CN(C)CCN(C)Cc3cn(-c4cccc(C(F)(F)F)c4)c4ccccc34)c(=O)c2cc1C`, the activity change, negative = inhibition in experiment [1] is -1.79%; in experiment [2] it was 14.1%; in experiment [3] it was -36.4%; in experiment [4], -45%; in experiment [5] it was 1.54%.

Consider `Cc1cn2nc(C(=O)N3CCN(C(=O)c4ccco4)CC3)cc2c(N2CCCC2)n1`, for which the activity change, negative = inhibition in experiment [1] was -9.24%; in experiment [2], 0.033%; in experiment [3], -5.51%; in experiment [4], -15.1%; in experiment [5], -4.12%.

For `CCCn1c(=O)c2ccccc2n2c(=O)n(CC(=O)Nc3cc(Cl)ccc3C)nc12`, the activity change, negative = inhibition amounted to 2.7% in experiment [1]; 0.965% in experiment [2]; 8.1% in experiment [3]; 2.79% in experiment [4]; 1.77% in experiment [5].

As for `O=C1NCCCCCCN(C(=O)c2cccnc2)[C@H]2C[C@H](c3nc(Cc4ccccc4)no3)C[C@@H]12`, the activity change, negative = inhibition was -3.17% in experiment [1]; -2.78% in experiment [2]; -0.203% in experiment [3]; 7.04% in experiment [4]; -0.384% in experiment [5].

Turning to `COc1cccc(C(=O)N2CCOC[C@H](Oc3ccccc3)C2)c1`, the activity change, negative = inhibition in experiment [1] was -6.34%; in experiment [2], -6.05%; in experiment [3], -5.96%; in experiment [4], -12.9%; in experiment [5], -11.5%.

For the compound `Cc1ccc(Cn2nc3n(CCC(C)C)c(=O)c4ccc(C(=O)NCC(C)C)cc4n3c2=O)cc1`, the activity change, negative = inhibition in experiment [1] is 5.2%; in experiment [2] it was 0.33%; in experiment [3] it was 7.25%; in experiment [4], 4.6%; in experiment [5], 4.27%.

In the case of `COC(=O)c1ncn2c1C(=O)N(Cc1cccc(Cl)c1)C(C)(C(=O)NC1CCCCCC1)C2` (stereo not given), the activity change, negative = inhibition was determined as 3.17% in experiment [1]; 0.549% in experiment [2]; 8.32% in experiment [3]; 7.53% in experiment [4]; 0.581% in experiment [5].

With `Cn1c(CCC(=O)NC2CCOC2)nc2cc(S(=O)(=O)N3CCCC3)ccc21` (stereo not given), the activity change, negative = inhibition in experiment [1] was -1.18%; in experiment [2], 2.26%; in experiment [3], 0.086%; in experiment [4], -2.07%; in experiment [5], 10.3%.

Regarding `Cc1ccccc1Cn1nc2n(C)c(=O)c3ccc(C(=O)NC4CCCCC4)cc3n2c1=O`, the activity change, negative = inhibition stood at 2.66% in experiment [1]; 0% in experiment [2]; 9.09% in experiment [3]; 1.88% in experiment [4]; 3.1% in experiment [5].

As to `Cc1cc2c(cc1S(=O)(=O)Nc1ccc(F)cc1)n(C)c(=O)n2C`, the activity change, negative = inhibition was 10.8% in experiment [1]; 0% in experiment [2]; 9.21% in experiment [3]; -0.7% in experiment [4]; 4.11% in experiment [5].

Consider `CCc1ccccc1N1C(=O)c2cc(C(=O)OC)nn2CC1(C)C(=O)NC1CCCCCC1` (stereo not given), for which the activity change, negative = inhibition in experiment [1] was 0.73%; in experiment [2], 0.685%; in experiment [3], 2.21%; in experiment [4], -0.869%; in experiment [5], -0.701%.

On to `COc1cccc(C(=O)Cn2nc3n(Cc4ccc(C)cc4)c(=O)c4ccccc4n3c2=O)c1`, for which the activity change, negative = inhibition is 0.544% in experiment [1]; 0.049% in experiment [2]; 2.03% in experiment [3]; -1.37% in experiment [4]; -0.442% in experiment [5].

Turning to `C/C(=N\O)c1ccc(OCC(=O)N2CCCCC2)cc1`, the activity change, negative = inhibition in experiment [1] is 0.311%; in experiment [2], 7.3%; in experiment [3], 3.29%; in experiment [4] it was -11.3%; in experiment [5], -3.89%.

With `COCCN1Cc2ccc(NCC(C)C)nc2C(C)(C(=O)NC2CCC2)C1` (stereo not given), the activity change, negative = inhibition was -8.22% in experiment [1]; -2.92% in experiment [2]; -4.46% in experiment [3]; -15.7% in experiment [4]; -15.3% in experiment [5].

Take `COc1ccc(OC)c2c1cc1n2CC(C)(C(=O)NC2CCCC2)N(Cc2cccnc2)C1=O` (stereo not given): the activity change, negative = inhibition in experiment [1] was found to be 5.15%; in experiment [2], 0%; in experiment [3], 10.8%; in experiment [4] it was 6.35%; in experiment [5], 2.6%.

Consider `COCCN1C(=O)CCc2cc(NC(=O)c3ccc(Cl)s3)ccc21`, for which the activity change, negative = inhibition was -6.47% in experiment [1]; -4.75% in experiment [2]; -8.08% in experiment [3]; -7% in experiment [4]; -2.02% in experiment [5].

`O=S(=O)(c1ccc(Cl)c(-c2nnc(-c3ccccc3)o2)c1)N1CCN(c2ccc(F)cc2)CC1`: the activity change, negative = inhibition in experiment [1] is 15.6%; in experiment [2] it was 2.15%; in experiment [3] it was 13.4%; in experiment [4], 7.19%; in experiment [5], 10.2%.

As to `CC(C(=O)N1CCN(c2ccccn2)CC1)n1ccc2cc(S(=O)(=O)N3CCCC3)ccc21` (stereo not given), the activity change, negative = inhibition in experiment [1] is -0.389%; in experiment [2], 0%; in experiment [3], -0.727%; in experiment [4] it was 0.501%; in experiment [5], 2.36%.

On to `CC(C)NC(=O)c1ccc2c(=O)n(Cc3ccccc3)c3nnc(SCC(=O)c4ccccc4)n3c2c1`, for which the activity change, negative = inhibition in experiment [1] came out at 7.3%; in experiment [2] it was 0.736%; in experiment [3] it was 11.7%; in experiment [4], 7.39%; in experiment [5] it was 8.93%.

On to `CCCS(=O)(=O)N1C[C@@H](Oc2ccccc2)C[C@@H]1C(=O)NCCOC`, for which the activity change, negative = inhibition was -4.73% in experiment [1]; -4.47% in experiment [2]; -1.07% in experiment [3]; -8.35% in experiment [4]; -7.88% in experiment [5].

`Cc1ccc([S+](=O)([O-])NCCNC(=O)c2ccc(-c3cccc(C(F)(F)F)c3)cc2)cc1`: the activity change, negative = inhibition in experiment [1] was -3.06%; in experiment [2] it was -5.78%; in experiment [3], 0.786%; in experiment [4] it was -1.05%; in experiment [5], -2.46%.

For the compound `Cc1cc(F)ccc1S(=O)(=O)N1C[C@H](C2CC2)[C@@H](N)C1`, the activity change, negative = inhibition in experiment [1] is -4.01%; in experiment [2], -4.06%; in experiment [3], -0.707%; in experiment [4], -2.99%; in experiment [5], -9.23%.

The record behind these values is PubChem BioAssay AID1745853 (National Center for Advancing Translational Sciences (NCATS), 2022).
